Laboratory results from the supplement of paper PMC6531468.
Some of the results follow. These are enrichments in a pooled selection; single values are uncertain. Each score is taken over the longer molecules that contain the sequence shown.

Tests used:
Assay in all cases: 6-mer SELEX enrichment z-score vs GST control; IMP3 is the RNA-binding protein IGF2BP3; higher = more enriched by binding
[1] = system: IMP3 KH1-4; conditions: construct: KH1-4 (164-579); SELEX round: R4
Method: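 SELEX-seq with GST-tagged IMP3 KH1-4 (Pro164-Lys579) and an N40 RNA pool, round 4. 6-mer z-score of sequence-tag enrichment normalised to the corresponding GST SELEX round; RNA k-mers written as DNA (T for U).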

[2] = target: IMP3 full-length (UniProt O00425); conditions: construct: FL IMP3 (1-579); SELEX round: R4
Sequence of UniProt O00425 (O00425 whole entry): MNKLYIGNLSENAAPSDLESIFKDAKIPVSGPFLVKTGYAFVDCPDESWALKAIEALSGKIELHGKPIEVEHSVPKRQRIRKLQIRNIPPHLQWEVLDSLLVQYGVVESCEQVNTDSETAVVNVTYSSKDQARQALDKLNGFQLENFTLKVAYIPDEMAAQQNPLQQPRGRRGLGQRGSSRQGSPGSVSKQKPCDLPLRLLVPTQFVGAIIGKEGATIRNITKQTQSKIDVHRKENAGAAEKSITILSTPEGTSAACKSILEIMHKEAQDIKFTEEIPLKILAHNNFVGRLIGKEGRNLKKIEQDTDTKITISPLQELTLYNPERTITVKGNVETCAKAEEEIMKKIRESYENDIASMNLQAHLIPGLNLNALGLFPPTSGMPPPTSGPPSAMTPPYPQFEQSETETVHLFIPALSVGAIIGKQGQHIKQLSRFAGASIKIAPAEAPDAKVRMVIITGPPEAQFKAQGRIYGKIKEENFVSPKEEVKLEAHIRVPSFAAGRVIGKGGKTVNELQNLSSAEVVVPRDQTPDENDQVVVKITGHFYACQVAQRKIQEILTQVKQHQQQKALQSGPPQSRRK
Method: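 SELEX-seq with GST-tagged full-length IMP3 and an N40 RNA pool, round 4. Each 6-mer is scored as an enrichment z-score of sequence tags containing it, normalised to the matching GST SELEX round. RNA written as DNA (T = U).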

[3] = system: IMP3 KH1-2; conditions: construct: KH1-2 (164-376); SELEX round: R4
Sequence of IMP3 KH1-2 (chain, as listed by the source): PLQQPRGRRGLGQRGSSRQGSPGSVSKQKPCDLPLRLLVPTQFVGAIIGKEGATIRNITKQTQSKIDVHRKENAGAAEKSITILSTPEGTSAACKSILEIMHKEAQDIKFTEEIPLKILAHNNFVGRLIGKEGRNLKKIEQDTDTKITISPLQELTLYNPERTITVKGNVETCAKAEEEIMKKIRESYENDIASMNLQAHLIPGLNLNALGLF
Method: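 SELEX-seq with GST-tagged IMP3 KH1-2 (Pro164-Phe376) and an N40 RNA pool, round 4 (stringent 300/600 mM KCl washes). 6-mer z-score of sequence-tag enrichment normalised to the corresponding GST SELEX round; RNA k-mers written as DNA (T for U).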

[4] = system: IMP3 KH3-4; conditions: construct: KH3-4 (377-579); SELEX round: R4
Sequence of IMP3 KH3-4 (chain, as listed by the source): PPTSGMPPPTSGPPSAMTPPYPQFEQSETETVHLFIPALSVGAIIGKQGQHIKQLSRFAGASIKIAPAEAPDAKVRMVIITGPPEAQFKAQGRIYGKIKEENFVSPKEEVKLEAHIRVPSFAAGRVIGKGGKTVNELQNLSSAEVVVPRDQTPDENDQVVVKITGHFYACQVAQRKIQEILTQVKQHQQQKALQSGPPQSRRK
Method: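 SELEX-seq with GST-tagged IMP3 KH3-4 (Pro377-Lys579) and an N40 RNA pool, round 4. 6-mer z-score of sequence-tag enrichment normalised to the corresponding GST SELEX round; RNA k-mers written as DNA (T for U).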

Sequence of IMP3 KH1-4 (chain, as listed by the source): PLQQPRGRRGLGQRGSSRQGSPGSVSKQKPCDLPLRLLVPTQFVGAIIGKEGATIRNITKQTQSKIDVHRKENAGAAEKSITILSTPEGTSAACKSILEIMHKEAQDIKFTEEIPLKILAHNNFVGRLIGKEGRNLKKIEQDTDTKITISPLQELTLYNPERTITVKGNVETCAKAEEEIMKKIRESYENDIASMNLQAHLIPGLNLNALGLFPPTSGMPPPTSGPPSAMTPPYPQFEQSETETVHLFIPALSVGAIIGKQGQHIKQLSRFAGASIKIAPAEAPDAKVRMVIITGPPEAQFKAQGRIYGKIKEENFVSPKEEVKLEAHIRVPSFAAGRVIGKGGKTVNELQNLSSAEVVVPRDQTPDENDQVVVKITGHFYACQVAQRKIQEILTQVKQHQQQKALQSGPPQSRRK

Sequence | 6-mer SELEX enrichment z-score [1] | 6-mer SELEX enrichment z-score [2] | 6-mer SELEX enrichment z-score [3] | 6-mer SELEX enrichment z-score [4]
GGTCTG | 0.071 | 0.246 | 0.103 | 0.118
GGCCAC | 1.43 | 1.7 | 1.14 | 0.97
GATAAA | 0.879 | -0.947 | 0.788 | 1.89
GGCAGT | 0.642 | 1.02 | 0.567 | 0.717
CAGGAA | 0.8 | 0.476 | 0.679 | 0.747
ATGCTT | 0.325 | 0.066 | 0.301 | 0.422
CGAATA | 0.211 | -0.588 | 0.136 | 0.567
GCGGTT | -0.132 | 0.148 | -0.018 | 0.145
ATCGGG | -0.966 | -0.025 | -0.777 | -0.614
TAGCCC | -0.602 | -0.699 | -0.571 | -0.886
TCGACA | -0.833 | 0.164 | -0.824 | -0.861
CACGCG | -0.625 | 0.632 | -0.54 | -0.742
AGACTT | -0.158 | -0.598 | -0.098 | -0.022
TCGGCC | 2.29 | 2.69 | 1.84 | 1.7
CGCCGA | -1.21 | -0.355 | -0.975 | -1.27
GAGGGA | 0.892 | 0.12 | 0.941 | 0.915
CTTCTC | 0.16 | 0.106 | 0.237 | -0.079
GAATCA | 0.474 | 1.06 | 0.311 | 0.428
ATCATC | 1.36 | 2.6 | 1.1 | 0.669
AGAAGT | 0.42 | -0.162 | 0.206 | 0.623
TCATTT | 1.37 | 1.28 | 1.29 | 1.34
CGCGTC | -0.695 | 0.538 | -0.538 | -0.552
GATTAG | 0.593 | -0.034 | 0.42 | 0.88
CACCTG | -0.938 | -0.603 | -0.898 | -1.31

Sequence | 6-mer SELEX enrichment z-score [1] | 6-mer SELEX enrichment z-score [2] | 6-mer SELEX enrichment z-score [3] | 6-mer SELEX enrichment z-score [4]
GGGTAG | -0.118 | 0.152 | 0.132 | 0.195
TACCTC | -0.912 | -0.703 | -0.794 | -1.03
GCCCCA | -0.597 | -0.292 | -0.264 | -1.17
ACAAGC | -0.861 | -0.083 | -0.874 | -1.03
AGGGCA | 1.03 | 1.52 | 0.947 | 1.23
ACCTAG | -1.16 | -1.09 | -1.15 | -1.18
TAATAG | 0.949 | 0.057 | 0.822 | 1.5
AAAAGG | -0.48 | -1.32 | -0.535 | 0.426
GCAGTT | -0.043 | 0.172 | -0.07 | 0.003
GCCATA | 0.99 | 0.62 | 0.942 | 0.915
CAGGAG | 0.408 | 0.748 | 0.343 | 0.177
GGAGAC | 0.025 | -0.225 | 0.062 | -0.089
ACGACC | -1.3 | -1.43 | -1.14 | -1.89
TCCGTC | 0.159 | 0.508 | 0.207 | -0.173
CCGCTT | 0.018 | -0.071 | 0.282 | -0.106
ATGACG | 0.091 | -0.108 | -0.156 | 0.08
GGAGAG | 1.17 | 0.427 | 0.984 | 0.904
GCAGCG | -0.596 | 0.6 | -0.446 | -0.425
AAACTT | -0.079 | -1.04 | 0.004 | 0.259
ACCTTT | 0.013 | -0.497 | -0.026 | -0.097
GGCTGC | 0.593 | 0.928 | 0.467 | 0.407
AGCTGT | -0.471 | -0.342 | -0.456 | -0.431
GTCCTG | -0.264 | -0.201 | -0.304 | -0.43
CTGGAC | -0.316 | -0.316 | -0.331 | -0.598

Sequence | 6-mer SELEX enrichment z-score [1] | 6-mer SELEX enrichment z-score [2] | 6-mer SELEX enrichment z-score [3] | 6-mer SELEX enrichment z-score [4]
CGGCGC | 0.006 | 1.29 | 0.006 | 0.085
AGGACT | 0.189 | -0.206 | 0.095 | 0.189
ATTGCG | -0.26 | -0.2 | -0.344 | -0.061
ACGTAG | -1.39 | -0.782 | -1.35 | -1.27
CCTCAC | -0.532 | -0.311 | -0.468 | -1.12
GCGCGT | -1.09 | -0.156 | -0.913 | -0.827
GCACCT | -0.587 | -0.129 | -0.577 | -0.774
GTCACA | 0.334 | 1.14 | 0.088 | -0.031
TCAATG | 0.27 | 0.427 | 0.048 | 0.243
TCTTGA | -0.792 | -0.423 | -0.695 | -0.558
CCGACC | -2.17 | -1.82 | -1.82 | -2.56
CTCAAT | -0.03 | 0.208 | 0.023 | -0.149
GCCTCC | -0.308 | -0.007 | -0.237 | -0.775
AGTCGG | 1.73 | 2.1 | 1.49 | 1.35
GGGAAA | 0.374 | -0.416 | 0.413 | 0.726
TATCGA | -0.838 | -0.593 | -0.849 | -0.648
AGAATT | 0.931 | -0.207 | 0.775 | 1.68
TACGCA | 0.587 | 0.395 | 0.511 | 0.218
CTTACG | -0.088 | -0.314 | -0.163 | -0.173
GACAAC | -0.481 | -0.07 | -0.403 | -0.756
TGCGTA | -2.38 | -1.56 | -2.19 | -1.93
GAGGTT | 0.103 | 0.131 | 0.128 | 0.356
CCCCAT | 0.404 | -0.007 | 0.516 | -0.393
ATCGCC | 0.387 | 0.218 | 0.173 | -0.317

Sequence | 6-mer SELEX enrichment z-score [1] | 6-mer SELEX enrichment z-score [2] | 6-mer SELEX enrichment z-score [3] | 6-mer SELEX enrichment z-score [4]
AGCTGG | -0.152 | 0.138 | -0.077 | -0.097
ACGCTA | 0.089 | -0.309 | 0.151 | 0.109
CGCCAG | -0.023 | 0.482 | 0.05 | -0.342
CGACTA | -0.617 | -0.701 | -0.561 | -0.643
ACCGAC | -1.88 | -1.48 | -1.52 | -2.18
TTTTCC | 0.997 | 0.141 | 1.07 | 0.798
GGAGAT | 0.828 | 0.089 | 0.719 | 0.976
AGTGGA | 0.21 | -0.04 | 0.033 | 0.242
TTTCGT | 0.093 | 0.161 | 0.173 | 0.316
CGCTTC | -0.102 | 0.143 | 0.048 | -0.292
GATAGT | 0.197 | -0.073 | 0.074 | 0.345
CTGCGG | -0.163 | 0.242 | -0.076 | -0.12
TCACAG | 0.42 | 1.58 | 0.484 | 0.173
TCGGGT | -0.342 | 0.219 | -0.172 | -0.006
ATGAAC | 1.14 | -0.25 | 0.968 | 1.36
CGCGCA | 0.12 | 0.965 | 0.052 | -0.139
AAGCGG | -0.296 | -0.002 | -0.374 | 0.047
GGGACG | 0.277 | 0.193 | 0.415 | 0.23
GCTCAG | -0.373 | 0.512 | -0.144 | -0.248
AGTGAT | 0.197 | -0.256 | -0.037 | 0.344
GATAAT | 1.24 | -0.077 | 0.983 | 1.96
GTGTTC | -0.081 | -0.043 | -0.108 | -0.052
ATACGC | 1.09 | 0.378 | 0.991 | 0.659
CAAAAC | -2.08 | -1.42 | -1.54 | -2.11

Sequence | 6-mer SELEX enrichment z-score [1] | 6-mer SELEX enrichment z-score [2] | 6-mer SELEX enrichment z-score [3] | 6-mer SELEX enrichment z-score [4]
CTTCGG | -0.286 | 0.122 | -0.193 | -0.199
GCGGCC | 1.09 | 1.82 | 0.935 | 1.01
GGCATT | 0.437 | 1.07 | 0.276 | 0.4
AGAGGG | 0.885 | 0.292 | 1.12 | 1.15
AAACAC | 0.497 | 0.493 | 1.18 | 0.537
TCGAGA | -1.56 | -0.863 | -1.38 | -1.2
TCTAGG | -0.116 | 0.08 | -0.059 | 0.053
GGCCCC | 0.562 | 1.03 |  | -0.225
GCAAGT | 0.166 | 0.287 | -0.018 | 0.144
ACACAC | 2.43 | 3.25 |  | 1.1
AAGGAT | 0.848 | -0.14 | 0.531 | 1.25
GGGTTG | 0.139 | 0.215 | 0.308 | 0.391
TGCGCT | -0.092 | 0.087 |  | -0.014
ACTCTA | -0.35 | -0.599 | -0.277 | -0.348
CCTAGT | -0.361 | -0.333 | -0.38 | -0.398
TAACGA | -0.595 | -1.21 | -0.541 | -0.045
TCCGGC | 0.347 | 0.976 | 0.206 | 0.107
TTTCAT | 1.43 | 1.39 | 1.54 | 1.38
AGGGAA | 1.08 | 0.013 | 0.916 | 1.2
ATTGTC | 0.362 | 0.28 | 0.201 | 0.341
GTATAA | 0.408 | -0.222 | 0.341 | 0.91
GTCCCG | -1.01 | -0.067 | -0.836 | -0.985
AAGAAT | 1.15 | -0.68 |  | 2.17
CTTCGC | 0.032 | -0.04 | 0.005 | -0.25
